Test results from article PMC9848319, “Identification of a new structural family of SGK1 inhibitors as potential neuroprotective agents” (Journal of Enzyme Inhibition and Medicinal Chemistry, 2023).

Columns and labels:
U2OS-iMLS cells = assay: Mitophagy assay, iMLS reporter, PRKN-independent; type: cell-based, human; settings: U2OS-iMLS (no PRKN), 24 h; for Basal mitophagy (red-only structures per cell): compounds at 10 µM or inducer alone; for Reduction of DFP-induced mitophagy: co-treatment with DFP, compounds 10 µM
SH-SY5Y cell line = assay: Citrate synthase assay (amount of mitochondria); type: cell-based, human; settings: 24 h
SH-SY5Y cells [1] = assay: Neuroprotection against okadaic acid (AD cellular model), crystal violet; settings: for Protection from cell death caused by OA: pre-treated 10 µM 1 h, then OA 30 nM 24 h
U2OS-iMLS PRKN cells = assay: Mitophagy assay, iMLS reporter, PRKN-dependent; type: cell-based, human; settings: 24 h; for Basal mitophagy (red-only structures per cell): compounds at 10 µM or inducer alone
SH-SY5Y cells [2] = assay: Viability assay, crystal violet, compounds alone; type: cell-based, human; settings: compounds at 10 µM for 24 h

| SMILES | Basal mitophagy (red-only structures per cell) (U2OS-iMLS cells) | Reduction of DFP-induced mitophagy (U2OS-iMLS cells) | Protection from cell death caused by OA (SH-SY5Y cells [1]) | also measured |
| --- | --- | --- | --- | --- |
| Cc1c(O)c(=O)ccn1C [DFP, Deferiprone, reference compound] | induced mitophagy | – | – | Citrate synthase activity (SH-SY5Y cell line; DFP 1 mM alone): decrease in citrate synthase activity |
| C=C1[C@@H](O)[C@@H]2O[C@]3(CC[C@H](/C=C/[C@@H](C)[C@@H]4CC(C)=C[C@@]5(O[C@H](C[C@@](C)(O)C(=O)O)CC[C@H]5O)O4)O3)CC[C@H]2O[C@@H]1[C@@H](O)C[C@H](C)[C@H]1O[C@@]2(CCCCO2)CC[C@H]1C [OA, okadaic acid, reference compound] | – | – | – | Decrease in cell viability (SH-SY5Y cells [1]; OA 30 nM for 24 h): ~65% |
| COC(=O)c1cc(Nc2ncnc3[nH]ccc23)ccc1Br [ERP2.14] | reduced also basal mitophagy close to half | more than 40% | – | – |
| O=C(O)c1ccc(-c2c[nH]c3ncc(-c4ccccc4)cc23)cc1C1CCCC1 [GSK650394, reference compound] | neither GSK650394 nor our compounds enhanced the pathway | more than 50% | protected cells from death caused by the toxin | Basal mitophagy (red-only structures per cell) (U2OS-iMLS PRKN cells): neither GSK650394 nor our compounds enhanced the pathway; Citrate synthase activity, co-treatment with DFP (SH-SY5Y cell line; DFP 1 mM plus compound 10 μM): significatively recovered the loss of mitochondria to control levels |
| CO/C1=C\C(C)=C\[C@@H](C)[C@@H](O)[C@@H](C)C/C(C)=C/C=C/[C@H](OC)[C@@H]([C@@H](C)[C@@H](O)[C@H](C)[C@@]2(O)C[C@@H](O)[C@H](C)[C@@H](C(C)C)O2)OC1=O [BafA1, Bafilomycin A1, reference compound] | – | more than 50% | – | FCCP-induced mitophagy (U2OS-iMLS PRKN cells; co-treatment with FCCP, compounds 10 µM): mitophagy reduction |
| Nc1ccc(Sc2ccc(Nc3ncnc4[nH]ccc34)cc2)cc1 [VNG1.52] | – | – | – | Cell viability (SH-SY5Y cells [2]): slightly decrease in cell viability |
| FC(F)(F)c1cccc(Oc2ccc(Nc3ncnc4[nH]ccc34)cc2)c1 [VNG1.65] | – | – | – | Cell viability (SH-SY5Y cells [2]): slightly decrease in cell viability |
| Oc1cccc(Nc2ncnc3[nH]ccc23)c1 [AEV1.40] | reduced also basal mitophagy close to half | more than 50% | reduced the cell death caused by OA | – |
| CC(=O)c1ccc(Nc2ncnc3[nH]ccc23)cc1 [GMH1.12] | reduced also basal mitophagy close to half | more than 40% | reduced the cell death caused by OA | – |
| N#CC(C#N)=NNc1ccc(OC(F)(F)F)cc1 [FCCP, Carbonyl cyanide-p-trifluoromethoxyphenylhydrazone] | – | – | – | Basal mitophagy (red-only structures per cell) (U2OS-iMLS PRKN cells): induced mitophagy |
